This is an account of results in PMC4336329 (PLoS ONE, 2015).

The campaign covered roughly 310,000 compounds. About 14,000 (4.5%) showed an effect of 50% or more. The effect is printed as a negative number. This is one part of the list.
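Also: peak tail current of the secondary pulse compared with the same well before compound.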

Chain of human ether-à-go-go-related gene (hERG) potassium channel (Q12809 whole entry, looked up): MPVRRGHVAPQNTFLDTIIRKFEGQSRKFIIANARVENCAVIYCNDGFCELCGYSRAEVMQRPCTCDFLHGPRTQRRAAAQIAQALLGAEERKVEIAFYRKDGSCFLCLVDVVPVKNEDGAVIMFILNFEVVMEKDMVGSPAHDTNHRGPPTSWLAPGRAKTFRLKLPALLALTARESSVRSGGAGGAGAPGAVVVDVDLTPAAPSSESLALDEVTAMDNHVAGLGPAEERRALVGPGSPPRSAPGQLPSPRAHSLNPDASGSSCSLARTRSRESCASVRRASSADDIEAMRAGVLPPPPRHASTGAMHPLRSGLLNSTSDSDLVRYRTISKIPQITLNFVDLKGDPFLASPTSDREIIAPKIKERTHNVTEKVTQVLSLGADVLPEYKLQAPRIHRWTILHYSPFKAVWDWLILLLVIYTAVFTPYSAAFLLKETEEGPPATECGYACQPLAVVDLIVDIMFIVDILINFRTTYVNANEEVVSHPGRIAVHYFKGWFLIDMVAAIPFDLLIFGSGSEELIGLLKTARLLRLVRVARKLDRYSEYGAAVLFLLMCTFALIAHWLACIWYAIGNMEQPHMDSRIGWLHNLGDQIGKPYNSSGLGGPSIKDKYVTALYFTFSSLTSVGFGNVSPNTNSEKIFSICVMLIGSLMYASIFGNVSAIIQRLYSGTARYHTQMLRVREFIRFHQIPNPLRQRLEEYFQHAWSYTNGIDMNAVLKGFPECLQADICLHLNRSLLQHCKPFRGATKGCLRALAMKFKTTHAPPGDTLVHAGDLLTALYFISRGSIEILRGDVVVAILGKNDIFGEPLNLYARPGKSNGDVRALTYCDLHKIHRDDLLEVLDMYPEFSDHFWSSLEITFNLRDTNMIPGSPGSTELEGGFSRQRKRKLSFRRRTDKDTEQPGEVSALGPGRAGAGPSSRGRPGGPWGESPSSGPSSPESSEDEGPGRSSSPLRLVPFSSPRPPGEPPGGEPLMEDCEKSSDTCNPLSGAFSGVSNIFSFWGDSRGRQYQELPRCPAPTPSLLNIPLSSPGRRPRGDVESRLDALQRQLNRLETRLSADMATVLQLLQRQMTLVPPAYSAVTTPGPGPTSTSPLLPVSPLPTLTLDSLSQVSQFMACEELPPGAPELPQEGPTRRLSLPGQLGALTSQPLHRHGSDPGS

The test addresses human ether-à-go-go-related gene (hERG) potassium channel (human, UniProt Q12809). Kind of test: primary screen, population patch clamp on CHO cells stably expressing hERG.
Turning to `COc1cccc(OCC(=O)Nc2c3c(nn2-c2ccc(F)cc2)CS(=O)(=O)C3)c1`, the “hERG current change (%, negative = inhibition) at 10uM” value is 6.63%.

On to `CC1CCCCN1C(=O)COC(=O)CNC(=O)c1sc2ccccc2c1Cl` (centres unmarked), for which the “hERG current change (%, negative = inhibition) at 10uM” value is listed as -7.18%.

For the compound `CCN(C(=O)Cn1cnc2c1c(=O)n(C)c(=O)n2C)C1CCS(=O)(=O)C1` (centres unmarked), the “hERG current change (%, negative = inhibition) at 10uM” value was determined as 1.71%.

Turning to `CSc1ncccc1C(=O)OCC(=O)c1ccc(S(=O)(=O)N2CCCCC2)cc1`, the “hERG current change (%, negative = inhibition) at 10uM” value is given as 23.5%. Under `Cc1c(Cl)cccc1NC(=O)NNC(=O)CCc1ccccc1` stands 19.9%; under `O=C(CN1C(=O)NC2(CCCCCC2)C1=O)N1CCCCC1`, -2.23%. In the case of `O=C(Cc1ccc(Cl)cc1)N1CCOCC1`, the “hERG current change (%, negative = inhibition) at 10uM” value is 5.91%.

Turning to `Cc1nc2sccn2c(=O)c1S(=O)(=O)N1CCN(c2cccc(C(F)(F)F)c2)CC1`, the “hERG current change (%, negative = inhibition) at 10uM” value is -30.2%. Under `O=C1CSC(=Nc2ccccc2)N1` stands 2.24%; under `CCOC(=O)N1CCN(C(=O)c2cccn3c(=O)c4sccc4nc23)CC1`, -35.9%. Take `Cc1ncoc1C(=O)N1CCCC(C(=O)c2ccc(C(F)(F)F)cc2)C1` (centres unmarked): the “hERG current change (%, negative = inhibition) at 10uM” value was -10.6%. Under `Oc1[nH]c2ccc(Br)cc2c1N=Nc1ccc(F)cc1` stands 15.7%.

Turning to `COc1ccc(NC(=O)CN(C)C(=O)CC2CCCCC2)cc1`, the “hERG current change (%, negative = inhibition) at 10uM” value amounted to 3.71%. Under `COCC(=O)NC1CCN(S(=O)(=O)c2cccc(C(C)=O)c2)CC1` stands 26%. The figure for `COc1ccc(CC(=O)Nc2ccc(S(=O)(=O)Nc3cc(C)on3)cc2)cc1` is -6.3%.

On to `CC(C)CC(=O)N1CCN(c2ccc([N+](=O)[O-])c(NCc3ccccc3)c2)CC1`, for which the “hERG current change (%, negative = inhibition) at 10uM” value is reported as -10.7%. For the compound `CCOc1ccc(/C=N/NC(=O)c2ccc(Cn3cc(Br)cn3)o2)cc1`, the “hERG current change (%, negative = inhibition) at 10uM” value is listed as -56.4%. `Cc1ccc(C(C(=O)NCC2CCCO2)N(Cc2ccccc2F)C(=O)Cn2nnc(-c3cccs3)n2)cc1` (centres unmarked): the “hERG current change (%, negative = inhibition) at 10uM” value amounted to 8.8%. With `O=C(Nc1nccs1)[C@@H]1CC=C[C@@H]2CCN(Cc3ccccc3)C(=O)[C@@H]21`, the “hERG current change (%, negative = inhibition) at 10uM” value was determined as 4.85%. Take `O=C1c2cc(F)ccc2OC2(CCNCC2)C12CC(c1ccccc1)=NO2` (centres unmarked): the “hERG current change (%, negative = inhibition) at 10uM” value is 0.947%.

With `CC1=NN(C(=O)c2ccoc2C)C(O)(C(F)(F)F)C1` (centres unmarked), the “hERG current change (%, negative = inhibition) at 10uM” value is listed as 10%. Consider `COc1ccc(CC2(CO)CCN(S(=O)(=O)c3c(C)nn(C)c3C)CC2)cc1`, for which the “hERG current change (%, negative = inhibition) at 10uM” value was determined as 7.76%.

Consider `CC(=NCCc1c[nH]c2ccccc12)c1c(O)n(Cc2ccccc2)c(=O)[nH]c1=O`, for which the “hERG current change (%, negative = inhibition) at 10uM” value is 0.859%. Consider `COc1cc(C2=CCN(C(C)=O)CC2)ccc1OC(C)=O`, for which the “hERG current change (%, negative = inhibition) at 10uM” value was determined as 14.8%. Regarding `COc1cc(S(=O)(=O)Nc2ccncc2)ccc1F`, the “hERG current change (%, negative = inhibition) at 10uM” value is 49.5%. Under `CC(=O)Oc1ccccc1-c1nc(/C=C/c2ccccc2)no1` stands 14.3%.

As for `CCOC(=O)C1CCN(c2ccccc2CN2CCN(c3ccccc3OCC)CC2)CC1`, the “hERG current change (%, negative = inhibition) at 10uM” value was -46.3%. `Cc1cc(C(=O)N/N=C2/CC(C)CC(C)(C)C2)c(C)o1` (centres unmarked): the “hERG current change (%, negative = inhibition) at 10uM” value is on record as -8.27%. Turning to `CCCC(=O)Nc1ccc(NC(=O)Cc2ccccc2)cn1`, the “hERG current change (%, negative = inhibition) at 10uM” value is listed as -0.677%. For the compound `COc1ccccc1CNC(=O)Cn1nnnc1CN(C)C(C)C`, the “hERG current change (%, negative = inhibition) at 10uM” value is reported as 12.6%. For `COc1cccc(CC(=O)OCc2csc(CC(=O)Nc3ccccc3C)n2)c1`, the “hERG current change (%, negative = inhibition) at 10uM” value worked out at 2.62%. On to `Cc1ccc(C(=O)N2CCN(c3ccc(F)cc3)CC2)cc1S(=O)(=O)N1CCCCC1`, for which the “hERG current change (%, negative = inhibition) at 10uM” value is reported as -54%. Consider `COc1ccc(/C(O)=C2/C(=O)C(=O)N(c3ncccn3)C2c2ccc(OC)c(OC)c2)cc1` (centres unmarked), for which the “hERG current change (%, negative = inhibition) at 10uM” value is -2.51%. Under `Cc1cc(C)c(C)c(OCC(=O)N2CCOCC2)c1` stands 9.36%; under `CNC(=O)COC(=O)c1nc(-n2nc(C)cc2C)ccc1Cl`, 3.29%.

`O=C(c1ccc(CS(=O)(=O)c2ccc(Br)cc2)o1)N1CCCCCC1`: the “hERG current change (%, negative = inhibition) at 10uM” value is listed as -22%.

As for `COCCOC1CCN(C(=O)C2CCC(=O)N(CCc3ccc(OC)cc3)C2)CC1` (centres unmarked), the “hERG current change (%, negative = inhibition) at 10uM” value came to 37.2%.

For the compound `C1CCCN(C2CCNCC2)CC1.Cl`, the “hERG current change (%, negative = inhibition) at 10uM” value is listed as 29.3%. For the compound `CN1C(=O)C2(OCCCO2)c2ccccc21`, the “hERG current change (%, negative = inhibition) at 10uM” value was found to be 24.4%. Under `Cc1ccnc(NC(=O)c2ccc(Cl)c(NC(=O)C(C)Oc3ccccc3)c2)c1` (centres unmarked) stands 1.41%. Under `O=C(NCCc1ccccc1)C1CCC(=O)N(CCCN2CCCC2=O)C1` (centres unmarked) stands 5.82%; under `COc1ccc2nc(Nc3nc(C)c(CCC(C)C)c(=O)[nH]3)nc(C)c2c1`, -24.9%.

Regarding `Cc1cc(C)c2sc(N(CCCN(C)C)C(=O)c3ccc(S(=O)(=O)N(C)C4CCCCC4)cc3)nc2c1.Cl`, the “hERG current change (%, negative = inhibition) at 10uM” value is given as -81.4%.

Regarding `O=C1CC(=O)N(c2ccccc2)N1c1ccccc1`, the “hERG current change (%, negative = inhibition) at 10uM” value amounted to 3.41%. The figure for `COc1cccc(-c2ncc3ccccn23)c1.O=C(O)C(=O)O` is -5%. The figure for `CCn1c(=O)n(CC)c2cc(S(=O)(=O)Nc3c(C)cccc3C)ccc21` is -1.8%; for `CCc1nn(C(C)C(=O)N(C)Cc2ccccc2)c(=O)c2cc3occc3n12` (centres unmarked) it is 12.2%; for `O=C(O)c1cccc(NC(=O)c2ccc3c(c2)C(=O)N(C2CCCCC2)C3=O)c1` it is 8.62%.

Consider `Cc1cccc(NS(=O)(=O)c2ccc(C(C)(C)C)cc2)n1`, for which the “hERG current change (%, negative = inhibition) at 10uM” value is 12.5%.

Take `Cc1ccc(Cl)c(NC(=O)CN2CCN(C=O)CC2)c1`: the “hERG current change (%, negative = inhibition) at 10uM” value came to 2.38%. For `COc1ccc(CCN(C(=O)C(F)(F)F)C(C(=O)NC2CCCCC2)c2ccc(C)s2)cc1` (centres unmarked), the “hERG current change (%, negative = inhibition) at 10uM” value was found to be 5.37%. Under `CN(C)c1cccc2c1C(=O)c1ccccc1C2=O` stands -14.1%; under `Cc1c(C(c2ccccc2)c2c(C)n(C)n(-c3ccccc3)c2=O)c(=O)n(-c2ccccc2)n1C`, 7.89%; under `CCOc1ccccc1N1CCN(C(=O)CN2C(=O)NC3(CCCC3)C2=O)CC1`, -2.82%. As for `Fc1cccc(F)c1/C=N/NC(=S)Nc1cccnc1`, the “hERG current change (%, negative = inhibition) at 10uM” value is listed as -14.3%.

On to `CCOC(=O)c1ccc2c(c1)[n+](CC)c(C)n2-c1ccccc1.[I-]`, for which the “hERG current change (%, negative = inhibition) at 10uM” value came out at 12.9%.
